About 14,000 (4.5%) of roughly 310,000 compounds showed an effect of 50% or more. The effect is printed as a negative number. Some of the results follow.
The molecules below were run against human ether-à-go-go-related gene (hERG) potassium channel (human, UniProt Q12809) (assay: primary screen, population patch clamp on CHO cells stably expressing hERG).
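Note: peak tail current of the secondary pulse compared with the same well before compound.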

Sequence of human ether-à-go-go-related gene (hERG) potassium channel (Q12809 whole entry, looked up): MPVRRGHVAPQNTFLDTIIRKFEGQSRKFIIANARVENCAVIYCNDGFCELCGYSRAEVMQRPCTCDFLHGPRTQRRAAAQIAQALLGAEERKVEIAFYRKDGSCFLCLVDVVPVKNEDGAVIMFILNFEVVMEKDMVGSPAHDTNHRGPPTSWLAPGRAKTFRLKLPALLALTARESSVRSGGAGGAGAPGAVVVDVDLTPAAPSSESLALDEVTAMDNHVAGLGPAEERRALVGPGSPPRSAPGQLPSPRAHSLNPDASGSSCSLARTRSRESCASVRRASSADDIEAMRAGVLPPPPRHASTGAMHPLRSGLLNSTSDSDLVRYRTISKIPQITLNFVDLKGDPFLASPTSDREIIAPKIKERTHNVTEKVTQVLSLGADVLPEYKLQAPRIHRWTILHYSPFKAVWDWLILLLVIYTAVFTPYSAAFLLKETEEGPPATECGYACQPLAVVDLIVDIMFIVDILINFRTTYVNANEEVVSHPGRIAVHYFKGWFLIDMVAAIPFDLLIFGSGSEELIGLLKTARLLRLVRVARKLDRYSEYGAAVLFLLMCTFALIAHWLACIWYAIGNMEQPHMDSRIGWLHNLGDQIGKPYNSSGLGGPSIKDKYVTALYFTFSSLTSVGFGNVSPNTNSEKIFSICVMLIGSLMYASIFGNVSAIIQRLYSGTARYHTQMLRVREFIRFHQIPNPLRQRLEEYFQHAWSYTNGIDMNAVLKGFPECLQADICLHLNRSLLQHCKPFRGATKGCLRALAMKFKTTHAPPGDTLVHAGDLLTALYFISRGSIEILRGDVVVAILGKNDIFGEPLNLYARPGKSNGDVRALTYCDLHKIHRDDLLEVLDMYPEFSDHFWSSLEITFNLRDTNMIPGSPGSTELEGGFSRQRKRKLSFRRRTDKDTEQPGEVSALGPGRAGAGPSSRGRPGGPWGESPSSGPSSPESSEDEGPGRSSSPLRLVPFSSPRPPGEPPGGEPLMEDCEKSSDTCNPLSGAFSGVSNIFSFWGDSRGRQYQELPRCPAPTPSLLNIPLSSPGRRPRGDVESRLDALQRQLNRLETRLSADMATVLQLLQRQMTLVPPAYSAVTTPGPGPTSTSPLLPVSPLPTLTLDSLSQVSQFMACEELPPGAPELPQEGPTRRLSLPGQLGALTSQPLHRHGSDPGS

SMILES | hERG current change (%, negative = inhibition) at 10uM [%]
CC(C)c1ccc(S(=O)(=O)N2CCN(CC(=O)c3ccc(O)c(O)c3)CC2)cc1 | -24.6
COc1ccc(C(=O)OC(COc2ccccc2)Cn2ccnc2)cc1 (stereo not shown) | -41.6
Cc1cccc(-c2nnc(N)s2)c1 | 9.79
COC(=O)C1=C(c2cccc(OCc3ccccc3)c2)C[C@@H]2CC[C@H]1N2C(=O)NCc1ccc(OC)c(OC)c1 | 5.75
O=C(CCCN1C(=O)c2ccccc2C1=O)NCCN1C(=O)S/C(=C\c2cccs2)C1=O | -16.4
Cc1ccccc1C(=O)NC1CCN(CC(=O)Nc2ccc(N(C)C)cc2)CC1 | 12.8
COc1cccc(CN2CC(C(=O)NCCc3ccccc3C(F)(F)F)CCC2=O)c1 (stereo not shown) | -23.6
Cc1ccc(Nc2c([N+](=O)[O-])c(=O)oc3ccccc23)cc1C | -34
CCCN(C(=O)C(C)Oc1cccc(Cl)c1)c1c(N)n(Cc2ccccc2)c(=O)[nH]c1=O (stereo not shown) | 1.41
COc1cc(C2c3c(n[nH]c3C)C(=O)N2c2ccc(C)cc2)ccc1O (stereo not shown) | 0.893
CCNC(=S)NNC(=O)c1ccc(OC)cc1 | 13.9
Cc1ccc(NC2CCCN(C(=O)CCc3scnc3C)C2)cc1C (stereo not shown) | -1.81
O=C(Cc1ccccc1)Nc1ncccc1Cl | 6.6
Cc1ccc(Nc2nc(CSc3nnnn3-c3ccccc3)cc(=O)[nH]2)cc1 | 2.42
CCOC(=O)CSc1ccc(S(=O)(=O)N(CC)CC)cc1[N+](=O)[O-] | -27.2
Cc1ccc(-n2ncc3c(=O)n(CC(=O)NC4CCCC4)cnc32)cc1C | 5.66
Cc1ccc2cc(CCNC(=O)C(=O)c3c(C)[nH]c4ccccc34)c(=O)[nH]c2c1 | -7.95
COc1ccc2c(C)nc(Nc3nc(-c4ccccc4)cc(=O)[nH]3)nc2c1 | 2.47
CCOc1ccc(NC(=O)CCC(=O)NNS(=O)(=O)c2ccccc2[N+](=O)[O-])cc1 | 6.48
O=C(CN(C(=O)c1csnn1)c1cccc(Cl)c1)NC1CCCC1 | -2.38
CC(C)N(CCCNC(=O)c1nn(C)c2c1CS(=O)(=O)c1ccccc1-2)Cc1ccccc1 | -34.5
CCn1nnc2cc(C(=O)Nc3cc(OC)cc(OC)c3)ccc21 | 8.81

SMILES | hERG current change (%, negative = inhibition) at 10uM [%]
CC(=O)N(CC(=O)Nc1nn(-c2ccccc2)nc1C(N)=O)Cc1ccccc1 | -14.9
Cc1ccccc1NC(=O)CN(c1ccc(F)cc1)S(C)(=O)=O | 8.71
COC(=O)C1=CN(Cc2ccc(OC)c(OC)c2)C=C(C(=O)OC)C1c1ccc(O)cc1 | 6.18
COc1ccc(NC(=O)CC2C(=O)N(c3cccc(C)c3)C(=O)N2C2CCCCC2)cc1 (stereo not shown) | -14.5
O=C(Cc1ccc(Cl)cc1)NCCc1cnc[nH]1 | 13.5
CC(C)(C)CC(C)(C)NC(=S)Nc1ccc(S(=O)(=O)N2CCOCC2)cc1 | -5.67
N#Cc1nc(-c2cccs2)oc1N1CCN(Cc2ccccc2)CC1 | 1.61
COc1ccc(N2CCN(CCNC(=O)CCNS(=O)(=O)c3cccs3)CC2)cc1 | -24.7
Cc1cc(C)c(CN2CCC(CO)(CCOc3ccccc3)CC2)cc1C | -65.2
CC(C)CC(NC(=O)C1CCC(C)CC1)C(=O)Nc1cccnc1 (stereo not shown) | 6.13
Cc1cc(C)nc(NC(=O)c2ccc(Cl)c(Cl)c2)n1 | -7.33
COc1cc(Cl)c(C)cc1NC(=O)COC(=O)C1=COCCO1 | 19.4
O=C(Nc1ccccc1)c1cccc(N2C(=O)C3C4C=CC(C5CC45)C3C2=O)c1 (stereo not shown) | -7.8
CC(c1ccccc1)N(CC(=O)NC1CCCCC1)S(=O)(=O)c1cccc(C(F)(F)F)c1 (stereo not shown) | -7.36
CCN1C(=O)CS/C1=N\S(=O)(=O)c1ccccc1 | -5.21
COc1ccc(CN(Cc2cc3ccc(C)cc3[nH]c2=O)Cc2nnnn2C2CCCC2)cc1 | -21.4
O=C1c2ccccc2C(=O)N1CCCSc1nc2ccccc2o1 | -0.0418
CCc1nccn1S(=O)(=O)c1ccc2ccc(C)cc2c1 | 8.75
CCN(CC(=O)Nc1ccccc1OC)C(=O)c1cc(-c2ccccc2)nn1-c1ccccc1 | -36.9
CNC(=O)/C(=C\c1ccc2c(c1)OCO2)NC(=O)c1ccc(Br)cc1 | -56.5
COc1ccc(-c2csc(NC(=O)CSc3nnnn3C)n2)c(OC)c1 | 15.9
CCOC(=O)c1cc(-c2ccc(/C=C3/C(=O)N(c4ccc(C(=O)O)cc4)N=C3C)o2)ccc1Cl | 0.757

SMILES | hERG current change (%, negative = inhibition) at 10uM [%]
CCCCNC(=O)C(=O)NC(C)CCc1ccccc1 (stereo not shown) | -4.62
O=C(CCC1CCCC1)N1CCC(N2CCN(c3ccccc3)CC2)CC1 | -66.6
COc1cccc(-n2c(C)nc3c(cnn3-c3ccc(Cl)cc3)c2=O)c1 | -10.2
CN(C)/N=C/C=C1\CCC/C(=C\c2ccc(F)c(F)c2)C1=O | 13
CCN(CC)C1CCN(C(=O)c2cc(COc3ccccc3SC)on2)C1 (stereo not shown) | -68.4
Cc1sc2ncn(CC(=O)N3CCCCC3)c(=O)c2c1C | 7.16
O=C1CCC/C(=N\NC(=O)c2ccc(COc3ccccc3-c3ccccc3)cc2)C1 | 5.27
COc1cc(Cl)c(C)cc1NC(=O)COC(=O)c1ccc(CN2CCCC2=O)cc1 | -11.5
O=C1C=CCCC1 | 15.1
COc1cc(NC(=O)C2CC(=O)NC3=C2C(=O)CCC3)c(OC)cc1Cl (stereo not shown) | -5.71
[2H]c1c([2H])c([2H])c(C(=O)c2sc(N3CCCCCC3)nc2-c2ccccc2)c([2H])c1[2H] | -9.11
Cc1cc(=O)[nH]c(-n2nc(C)cc2C)n1 | 3.48
CN(CC(=O)Nc1ccccc1C(F)(F)F)C(=O)Cc1ccc(S(=O)(=O)N2CCOCC2)s1 | -1.45
CC(C)OC(=O)CSc1nc(N)c(C#N)c(-c2ccco2)c1C#N | 4.97
COc1ccccc1NC(=O)c1ccc(SCC(=O)NCc2ccccc2Cl)c([N+](=O)[O-])c1 | -0.627
CCOC(=O)C1CCCN(S(=O)(=O)c2ccc(NC(C)=O)cc2)C1 (stereo not shown) | 10.1
Cc1c(NC(=O)C(=O)/C=C(/O)c2ccccc2)c(=O)n(-c2ccccc2)n1C | 2.46
CC(=O)/C=C1/C(=O)Nc2ccccc21 | -9.81
COC(=O)CNC(=O)Cc1c(C)n(C(=O)c2ccc(Cl)cc2)c2ccc(OC)cc12 | -14.8
O=C(Nc1cccnc1Cl)c1cc2ccccc2o1 | 6.92
COc1ccc(-c2csc(NC(=O)c3ccc(N4C(=O)CCC4=O)cc3)n2)cc1OC | 20.6
O=C(COc1cccc2c1CCN(Cc1ccccc1)C2=O)NCc1ccco1 | -70.3

SMILES | hERG current change (%, negative = inhibition) at 10uM [%]
O=C(/C=C/c1ccccc1)NC1CCCc2ccccc21 (stereo not shown) | 39.7
Cc1cccc(CC(C)NC(=O)c2oc3c(F)cccc3c2C)n1 (stereo not shown) | 11.3
O=C1c2ccccc2C(=O)N1CCc1csc(NNc2nc(CCN3C(=O)c4ccccc4C3=O)cs2)n1 | -13.9
Cc1cc(C(=O)N2CCC(C(=O)O)CC2)c(C)o1 | 6.42
O=[N+]([O-])c1ccc(NC(=S)N2CCN(c3ccc(F)cc3)CC2)cc1 | 3.73
Cc1oc(C(=O)O)cc1CSCc1ccoc1C(=O)O | 7.26
COc1ccc(O)c(C(=O)c2cnc3nc4ccccc4n3c2)c1 | -12.8
COc1ccc(NC(=O)C(C)Sc2ccccc2)cc1 (stereo not shown) | 1.14
COc1ccc(C(C(=O)NC(C)C)N(C(=O)CCC(=O)Nc2nccs2)c2ccccc2F)cc1 (stereo not shown) | 13.2
O=C(O)C(Cc1ccccc1)NC(=O)C(c1ccccc1)c1ccccc1 (stereo not shown) | 15
O=C(Nc1ccc(S(=O)(=O)Nc2ncccn2)cc1)c1ccc2ncsc2c1 | -2.39
Cc1cccc(C)c1OCCNC(=O)CCC(=O)c1ccccc1 | -0.949
COc1c(Cl)ccc(Cl)c1C(=O)NC(=S)N1CCOCC1 | 25.1
COc1ccc(-c2nnn(CC(=O)N(CC(=O)NCCC(C)C)c3ccccc3)n2)cc1OC | -6.42
O=C(CCCc1ccccc1)N=C1SC2CS(=O)(=O)CC2N1c1ccccc1F (stereo not shown) | -26.4
O=c1[nH]c(C2CCCN(S(=O)(=O)c3ccccc3)C2)nc2c1nnn2Cc1ccc2c(c1)OCCO2 (stereo not shown) | -0.905
CCNC(=O)CC1C(=O)N(c2ccc(F)cc2)C(=O)N1Cc1ccccn1 (stereo not shown) | -33.2
FC(F)(F)c1nnc2sc(-c3ccccn3)nn12 | 12
Cc1cccc(NC(=O)CSCC(=O)NNC(=O)c2ccoc2C)c1 | 7.04

— PMC4336329 (PLoS ONE, 2015)
